In publication PMC4336329 (PLoS ONE, 2015):
Screen size: about 310,000 compounds; about 14,000 (4.5%) showed an effect of 50% or more. The effect is printed as a negative number. The list shows a part of the results.

target: human ether-à-go-go-related gene (hERG) potassium channel (human, UniProt Q12809); assay: primary screen, population patch clamp on CHO cells stably expressing hERG
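Note: peak tail current of the secondary pulse compared with the same well before compound.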

human ether-à-go-go-related gene (hERG) potassium channel, sequence (Q12809 whole entry, looked up): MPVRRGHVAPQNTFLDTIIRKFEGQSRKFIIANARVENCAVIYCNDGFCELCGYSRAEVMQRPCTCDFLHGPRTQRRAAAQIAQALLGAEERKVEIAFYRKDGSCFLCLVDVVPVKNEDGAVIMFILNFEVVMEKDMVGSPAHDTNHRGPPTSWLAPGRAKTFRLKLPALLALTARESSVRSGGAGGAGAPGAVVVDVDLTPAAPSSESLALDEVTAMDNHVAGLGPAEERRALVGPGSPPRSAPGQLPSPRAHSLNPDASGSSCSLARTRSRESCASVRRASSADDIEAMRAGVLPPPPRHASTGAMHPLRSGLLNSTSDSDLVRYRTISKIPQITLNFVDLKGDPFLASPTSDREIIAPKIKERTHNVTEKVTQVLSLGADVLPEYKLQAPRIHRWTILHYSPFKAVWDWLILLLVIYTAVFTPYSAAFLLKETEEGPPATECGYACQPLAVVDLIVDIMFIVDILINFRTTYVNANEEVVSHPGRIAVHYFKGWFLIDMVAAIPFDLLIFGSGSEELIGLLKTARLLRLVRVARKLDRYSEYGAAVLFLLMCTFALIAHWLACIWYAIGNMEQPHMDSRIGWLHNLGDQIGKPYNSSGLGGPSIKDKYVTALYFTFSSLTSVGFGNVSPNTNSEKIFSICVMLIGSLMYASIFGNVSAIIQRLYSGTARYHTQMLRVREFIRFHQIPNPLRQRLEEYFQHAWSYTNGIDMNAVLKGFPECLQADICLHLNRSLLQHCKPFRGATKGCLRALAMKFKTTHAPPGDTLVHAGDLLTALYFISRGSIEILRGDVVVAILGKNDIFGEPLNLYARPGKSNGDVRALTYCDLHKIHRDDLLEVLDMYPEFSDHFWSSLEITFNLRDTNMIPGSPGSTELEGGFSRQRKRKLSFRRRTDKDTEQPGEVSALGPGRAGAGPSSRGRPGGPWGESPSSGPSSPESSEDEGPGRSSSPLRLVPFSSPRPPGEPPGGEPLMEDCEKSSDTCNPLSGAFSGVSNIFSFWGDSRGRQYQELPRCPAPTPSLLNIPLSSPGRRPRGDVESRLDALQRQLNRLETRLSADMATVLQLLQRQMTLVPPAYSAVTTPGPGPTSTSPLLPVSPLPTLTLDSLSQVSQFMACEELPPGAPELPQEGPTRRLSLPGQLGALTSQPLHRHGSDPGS

Structure (SMILES) | hERG current change (%, negative = inhibition) at 10uM [%]
COc1ccc(N(CC(=O)Nc2cc(C)ccc2C)S(=O)(=O)c2c(C)nn(C)c2C)cc1 | 1.59
O=C(CCCN1C(=O)c2ccccc2C1=O)Nc1ccc2c(c1)OCCO2 | 12.1
COC(=O)c1cc(S(=O)(=O)N2CCCCC2C)c[nH]1 (stereo not shown) | 2.86
Cc1ccc2c(c1)-c1c(cnn1CC(=O)N(Cc1ccco1)C1CCCCC1)CO2 | -13
Cc1ccc(NCc2n[nH]c(=S)n2-c2ccccc2)c(C)c1 | -0.413
COc1ccc(-c2ocnc2C(=O)Nc2ccc3c(c2)CCC3)cc1 | 8.64
O=C(N/N=C/c1ccc(O)cc1O)/C(=C/c1ccccc1)CCO | -15
CC(=O)N/C(=C\c1ccc(F)cc1)C(=O)NC(C(=O)O)C(C)C (stereo not shown) | 13.2
CCOC(=O)C1CCN(C(=O)c2cc3cc4cc(OC)ccc4nc3o2)CC1 | -31.7
COc1ccc(CCN(C)CC(O)COC(c2ccc(F)cc2)c2ccc(F)cc2)cc1OC (stereo not shown) | -79.2
Cn1c(=O)[nH]c(=O)c2c1nc(SCC(=O)O)n2CCc1ccccc1 | 23.7
O=C(c1ccc(NS(=O)(=O)c2ccc3[nH]c(=O)[nH]c3c2)cc1)N1CCCC(C(F)(F)F)C1 (stereo not shown) | 14
COc1ccc(S(=O)(=O)NC2CCSc3ccccc32)cc1OC (stereo not shown) | -38.8
Cc1ccc(SCC(=O)NC(=O)c2ccc(S(=O)(=O)N(C)C)cc2)cc1C | -23.8
N#Cc1nc(COc2ccc(F)cc2)oc1NCCCn1ccnc1 | -64.2
COC(=O)Nc1ccc(S(=O)(=O)N2CCN(c3ccc(F)cc3)CC2)cc1 | 1.63
COc1ccccc1CC(NC(C)=O)C(=O)N1CCN(C(=O)Nc2ccccc2Cl)CC1 (stereo not shown) | 11.8
COc1ccccc1N(CC(=O)N/N=C(\C)c1ccccc1O)S(=O)(=O)c1ccc(C)cc1 | 12.6
O=C(COc1cccc(F)c1)Nc1nc(-c2cccnc2)cs1 | 11.5
COc1ccc(NC(=O)Nc2ccc(Cc3ccncc3)cc2)c(OC)c1 | -18.2
C#CCOc1ccc(C2C3=C(CC(C)(C)CC3=O)N(CC(=O)O)C3=C2C(=O)CC(C)(C)C3)cc1OC | 17.5
CC(Cc1cccc(C(F)(F)F)c1)NCCOC(=O)c1ccccc1.Cl (stereo not shown) | -34
Cc1ccccc1C(=O)Oc1ccc(Sc2ccc(O)cc2)cc1 | 3.37
CCc1cccc(CC)c1NC(=S)NCC(c1cccnc1)N1CCOCC1 (stereo not shown) | -17.2
Cc1ccc(Nc2nc(C)c(CCC(C)C)c(=O)[nH]2)cc1 | 3.72
CCOC(=O)C1CCCN(C(=S)Nc2cccc(Cl)c2)C1 (stereo not shown) | -5.74
CC(=Nc1ccc(F)cc1)c1c(O)n(C)c(=O)[nH]c1=O | 24.4
Cc1cc(Cl)ccc1OCCCC(=O)N1CCOCC1 | -25

Structure (SMILES) | hERG current change (%, negative = inhibition) at 10uM [%]
COc1ccc(CCC(C)N2CCOCC2)cc1 (stereo not shown) | 2.71
Cc1ccc(NC(=O)CCC(=O)c2ccc(Br)cc2)cc1 | 8.32
CCOC(=O)N1CCC(NS(=O)(=O)c2ccc(C#N)cc2)CC1 | -2.64
O=C(COc1ccccc1)N1CCN(c2ccc([N+](=O)[O-])c(N3CCCCC3)c2)CC1 | -13.6
CCOC(=O)c1c(C)[nH]c(C)c1-c1ccccc1OC | -13.4
Cc1ccc(C)c(S(=O)(=O)N2CCNCC2)c1 | 10.4
O=C(O)C1CC=CCC1C(=O)Nc1ccc(S(=O)(=O)N2CCCc3ccccc32)cc1 (stereo not shown) | 8.21
O=C(NCCC1CCCCN1S(=O)(=O)c1cccs1)C(=O)Nc1ccc(F)cc1F (stereo not shown) | 13.9
O=C(N/N=C/c1cccc(NC(=O)c2ccc(Cl)cc2)c1)c1cccc(O)c1 | 16.4
O=C(NCCc1ccccn1)c1ccc2nc(Cc3ccccc3F)oc2c1 | -2.4
O=C(Cc1cccs1)Nc1ccc2c(c1)C(=O)OC2 | 5.08
CSC1=C(C#N)C(c2ccccc2Cl)C2=C(N1)c1ccccc1C2=O (stereo not shown) | 6.44
CSc1ncc(CN2CCc3c([nH]c4ccccc34)C2c2cccc(O)c2)cn1 (stereo not shown) | -22.9
Cc1c(N=Cc2c(O)n(Cc3ccc(F)cc3)c(=O)[nH]c2=O)c(=O)n(-c2ccccc2)n1C | -26
COCCNc1nnc(SC(C)C(=O)Nc2ccc(-c3nc4ccc(C)cc4s3)cc2)s1 (stereo not shown) | 13.4
Cc1ccc(S(=O)(=O)NCCN2CCOCC2)cc1 | 0.417
COc1ccc(/C=C(\C#N)C(=O)OCC(=O)NC2CC2)cc1 | 14.1
Cn1nc([N+](=O)[O-])c(C(C#N)c2ccccn2)c(Cl)c1=O (stereo not shown) | 7.61
Cn1c(=NC(=O)CS(=O)(=O)c2ccccc2)sc2cc([N+](=O)[O-])ccc21 | -36.5
CC(=O)NC(=S)Nc1ccc([N+](=O)[O-])cc1C | -31.8
Cc1cccc(C)c1NC(=O)COC(=O)CN1C(=O)C2CCCCC2C1=O (stereo not shown) | 5.85
Cc1oc(C)c2c(=O)ccc3c(c12)OC(N)=C(C#N)C3c1ccc(F)cc1 (stereo not shown) | -6.44
COc1ccccc1NC(=O)C1CC(C)OC1=O (stereo not shown) | 12.8
CCn1c(CSc2nc3ccccc3s2)nnc1SCC(=O)c1ccc2c(c1)OCCO2 | -10.5
CCN(Cc1ccccc1)S(=O)(=O)c1c(N)n(C)c(=O)n(C)c1=O | 5.47
COc1ccc(C(=O)COC(=O)c2ccc3ccccc3n2)cc1 | -7.97
O=C(CC(=O)Nc1cccc(Cl)c1)N/N=C\c1ccccc1 | 6.81
